# From the supplement of paper PMC4604168 (melanoma cell lines)
# This is one part of the list. Repeats are few or missing, and single values can be far off.
# Tests used:
# Test in all cases: cell count relative to DMSO control; melanoma cells; higher = more viable cells
# Settings in all cases: library dose: low library concentration; 72 h
# WM115 = system: WM115
# WM1716 = system: WM1716
# WM1745 = system: WM1745
# WM3526 = system: WM3526
# WM3619 = system: WM3619
# WM451Lu = system: WM451Lu
# 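Also: cell number obtained by counting DAPI-stained nuclei in high-throughput microscope images with image analysis software, screen run in 1,536-well plates.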
Structure (SMILES),cell count (WM115),cell count (WM1716),cell count (WM1745),cell count (WM3526),cell count (WM3619),cell count (WM451Lu)
"OCCn1cc(-c2cnc3nnn(Cc4ccc5ncccc5c4)c3n2)cn1 + c1cc(-c2cnn3cc(-c4ccc(OCCN5CCCCC5)cc4)cnc23)ccn1 [Dorsomorphin] (first compound 1 µM, partner dose 0.4 µM)",94.6%,106%,89.3%,107%,114%,115%
"NC(=O)Nc1cc(-c2cccc(F)c2)sc1C(=O)N[C@H]1CCCNC1 + Cn1cc(/C=C2\C(=O)Nc3cccnc32)c2ccccc21 [GW441756] (first compound 0.02 µM, partner dose 0.4 µM)",102%,104%,83.3%,73.4%,39.8%,97.3%
"NCC(=O)Nc1ccc(-n2nc(C(F)(F)F)cc2-c2ccc3c(ccc4ccccc43)c2)cc1 + CCCCCCCCCCCC1=C(O)C(=O)C=C(O)C1=O [Embelin] (first compound 1 µM, partner dose 1.2 µM)",95.9%,101%,88.3%,97.5%,94.7%,102%
"C=CCn1c(=O)c2cnc(Nc3ccc(N4CCN(C)CC4)cc3)nc2n1-c1cccc(C(C)(C)O)n1 + C[C@@H]1CCN(C(=O)CC#N)C[C@@H]1N(C)c1ncnc2[nH]ccc12 [CP690550] (first compound 0.02 µM, partner dose 1 µM)",90.6%,77.4%,80%,101%,94.2%,89.9%
"CN(C)S(=O)(=O)c1ccc2c(c1)/C(=C/c1cc3c([nH]1)CCCC3)C(=O)N2 + COc1cc(N2CCC(N3CCN(C)CC3)CC2)ccc1Nc1ncc(Cl)c(Nc2ccccc2S(=O)(=O)C(C)C)n1 [NVP-TAE684] (first compound 0.4 µM, partner dose 0.08 µM)",76.4%,109%,70.7%,78.1%,105%,64.1%
"CN(C)S(=O)(=O)c1ccc2c(c1)/C(=C/c1cc3c([nH]1)CCCC3)C(=O)N2 + N#Cc1c(O)c2c(-c3ccc(-c4ccccc4O)cc3)csc2[nH]c1=O [A769662] (first compound 0.4 µM, partner dose 2 µM)",85.9%,114%,80.3%,94.6%,119%,100%
"CN(C)S(=O)(=O)c1ccc2c(c1)/C(=C/c1cc3c([nH]1)CCCC3)C(=O)N2 + Cc1cc([N+](=O)[O-])ccc1NS(=O)(=O)c1cc(Cl)ccc1Cl [FH535] (first compound 0.4 µM, partner dose 1 µM)",92.3%,103%,86.7%,110%,122%,120%
"C=CCn1c(=O)c2cnc(Nc3ccc(N4CCN(C)CC4)cc3)nc2n1-c1cccc(C(C)(C)O)n1 + O=C(O)c1ccc(-c2c[nH]c3ncc(-c4ccccc4)cc23)cc1C1CCCC1 [GSK650394] (first compound 0.02 µM, partner dose 0.16 µM)",83.5%,80.6%,75.5%,80.6%,44.3%,129%
"NC(=O)Nc1cc(-c2cccc(F)c2)sc1C(=O)N[C@H]1CCCNC1 + CN(NC(=O)CC(=O)NN(C)C(=S)c1ccccc1)C(=S)c1ccccc1 [STA4783] (first compound 0.02 µM, partner dose 0.006 µM)",81.8%,69.5%,55.4%,85.8%,48.4%,83.1%
"CO[C@@H]1[C@H](N(C)C(=O)c2ccccc2)C[C@H]2O[C@]1(C)n1c3ccccc3c3c4c(c5c6ccccc6n2c5c31)C(=O)NC4 [Midostaurin] + Cc1cc([N+](=O)[O-])ccc1NS(=O)(=O)c1cc(Cl)ccc1Cl [FH535] (first compound 0.08 µM, partner dose 1 µM)",77.7%,75.2%,75.8%,100%,148%,97.2%
"NCC(=O)Nc1ccc(-n2nc(C(F)(F)F)cc2-c2ccc3c(ccc4ccccc43)c2)cc1 + O=C(Nc1ccccc1)c1cc([N+](=O)[O-])ccc1Cl [GW9662] (first compound 1 µM, partner dose 2 µM)",86.8%,107%,92.2%,41.8%,91.8%,56.7%
"CO[C@@H]1[C@H](N(C)C(=O)c2ccccc2)C[C@H]2O[C@]1(C)n1c3ccccc3c3c4c(c5c6ccccc6n2c5c31)C(=O)NC4 [Midostaurin] + O=C(Nc1ccccc1)c1cc([N+](=O)[O-])ccc1Cl [GW9662] (first compound 0.08 µM, partner dose 2 µM)",98%,92.7%,86.3%,117%,95.9%,94.2%
"CO[C@@H]1[C@H](N(C)C(=O)c2ccccc2)C[C@H]2O[C@]1(C)n1c3ccccc3c3c4c(c5c6ccccc6n2c5c31)C(=O)NC4 [Midostaurin] + O=c1cc(-c2cccc3c2Sc2ccccc2S3)oc(N2CCOCC2)c1 [KU55933] (first compound 0.08 µM, partner dose 1 µM)",77.3%,64.3%,62.2%,97.4%,68.5%,96.3%
"C=CCn1c(=O)c2cnc(Nc3ccc(N4CCN(C)CC4)cc3)nc2n1-c1cccc(C(C)(C)O)n1 + O=C(Nc1cccc(Cl)c1)Nc1ncc(CCNc2ncnc3ccsc23)s1 [SNS314] (first compound 0.02 µM, partner dose 0.0008 µM)",58.6%,81.9%,80.7%,64.3%,92.9%,128%
"C[C@]1(c2nc3c(C(N)=O)cccc3[nH]2)CCCN1 [Veliparib] + CC(C)(C)c1cnc(CSc2cnc(NC(=O)C3CCNCC3)s2)o1 [SNS-032] (first compound 1.4 µM, partner dose 0.01 µM)",87%,90.2%,94.1%,103%,79.5%,92.9%
"C[C@]1(c2nc3c(C(N)=O)cccc3[nH]2)CCCN1 [Veliparib] + Cn1cc(/C=C2\C(=O)Nc3cccnc32)c2ccccc21 [GW441756] (first compound 1.4 µM, partner dose 0.4 µM)",95.5%,94.1%,91.2%,93.2%,144%,103%
"Cc1nc(Nc2ncc(C(=O)Nc3c(C)cccc3Cl)s2)cc(N2CCN(CCO)CC2)n1 [dasatanib] + CC(C)CCN1c2nc(Nc3cc(F)c(O)c(F)c3)ncc2N(C)C(=O)C1C [BID1870] (first compound 0.004 µM, partner dose 0.2 µM)",79.7%,76.4%,72.6%,70%,91.4%,103%
"C[C@]1(c2nc3c(C(N)=O)cccc3[nH]2)CCCN1 [Veliparib] + O=c1cc(-c2cccc3c2Sc2ccccc2S3)oc(N2CCOCC2)c1 [KU55933] (first compound 1.4 µM, partner dose 1 µM)",109%,109%,95.3%,78.8%,105%,102%
"C=CCn1c(=O)c2cnc(Nc3ccc(N4CCN(C)CC4)cc3)nc2n1-c1cccc(C(C)(C)O)n1 + Oc1cc(-c2nc(-c3ccccc3)[nH]c2-c2ccncc2)ccc1Cl [L779450] (first compound 0.02 µM, partner dose 0.2 µM)",76.5%,82.1%,77.4%,68.7%,67.8%,98.2%
"C=CCn1c(=O)c2cnc(Nc3ccc(N4CCN(C)CC4)cc3)nc2n1-c1cccc(C(C)(C)O)n1 + O=c1cc(-c2cccc3c2Sc2ccccc2S3)oc(N2CCOCC2)c1 [KU55933] (first compound 0.02 µM, partner dose 1 µM)",92.2%,107%,72.4%,84.3%,38.5%,104%
"NC(=O)Nc1cc(-c2cccc(F)c2)sc1C(=O)N[C@H]1CCCNC1 + O=c1cc(-c2cccc3c2Sc2ccccc2S3)oc(N2CCOCC2)c1 [KU55933] (first compound 0.02 µM, partner dose 1 µM)",96.1%,88%,104%,81.8%,43.6%,83.7%
"CO[C@@H]1[C@H](N(C)C(=O)c2ccccc2)C[C@H]2O[C@]1(C)n1c3ccccc3c3c4c(c5c6ccccc6n2c5c31)C(=O)NC4 [Midostaurin] + COc1ccc(-c2ccc3c(N4CCOCC4)nc(N4C[C@@H](C)O[C@@H](C)C4)nc3n2)cc1CO [KU0063794] (first compound 0.08 µM, partner dose 0.02 µM)",88%,83.8%,92.2%,95.2%,65.7%,104%
"CN(C)S(=O)(=O)c1ccc2c(c1)/C(=C/c1cc3c([nH]1)CCCC3)C(=O)N2 + O=C(O)C(=O)Nc1sc2c(c1C(=O)O)CCNC2 [TCS401] (first compound 0.4 µM, partner dose 1.66667 µM)",60.1%,88.1%,86.3%,90.4%,77.7%,99.1%
"NC(=O)Nc1cc(-c2cccc(F)c2)sc1C(=O)N[C@H]1CCCNC1 + COc1cc2c(Oc3ccc4[nH]c(C)cc4c3F)ncnc2cc1OCCCN1CCCC1 [cediranib] (first compound 0.02 µM, partner dose 0.4 µM)",74.6%,100%,108%,89.7%,81.4%,110%
"C=CCn1c(=O)c2cnc(Nc3ccc(N4CCN(C)CC4)cc3)nc2n1-c1cccc(C(C)(C)O)n1 + COc1cc(N2CCC(N3CCN(C)CC3)CC2)ccc1Nc1ncc(Cl)c(Nc2ccccc2S(=O)(=O)C(C)C)n1 [NVP-TAE684] (first compound 0.02 µM, partner dose 0.08 µM)",78.1%,89.4%,81.3%,100%,67.7%,110%
"C[C@]1(c2nc3c(C(N)=O)cccc3[nH]2)CCCN1 [Veliparib] + Cn1nnc2c(C(N)=O)ncn2c1=O [temozolomide] (first compound 1.4 µM, partner dose 2 µM)",83.3%,80.5%,89.2%,85.9%,97.4%,73.8%
